Source: PubChem BioAssay AID686979 (National Center for Advancing Translational Sciences (NCATS), 2013)
In all, about 420,000 compounds went through this assay and about 50,000 (12%) were called active. This list was built around the results that the source calls inconclusive (neither active nor inactive); the mix of calls is not that of the screen. The call rests on the fitted dose curve; in most records, active means well fitted inhibition curve with a large enough effect; inconclusive means small, poorly fitted or top-dose-only effect; inactive means flat fitted curve, though single readings scatter. No potency is given beside an inconclusive call; the fits are too rough.

Experiment: qHTS for Inhibitors of human tyrosyl-DNA phosphodiesterase 1 (TDP1): qHTS in cells in presence of CPT; further: nearly all actives have a fitted effect of over 55% in size
Settings: chicken DT40 Tdp1-/-;hTDP1 cells + 20 nM CPT, ATP luminescence, 48 h; activity change, negative = growth inhibition: at 46.2 µM (top of the series) unless noted
Summary of the method: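 Cell growth measured by CellTiter-Glo luminescence after a minimum 48 h, 37 C compound exposure with 20 nM CPT in Tdp1-knockout DT40 cells stably expressing hTDP1, seeded 400/well; qHTS titration format.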
On the % scale 0 is the no-effect control and ±100 the full control effect; potency means the concentration at half of the fitted maximal effect; tags describe the fitted curve by direction and shape.

SMILES | Potency | activity change, negative = growth inhibition
CCOc1c2ccc(C(=O)NCc3ccc(C)cc3)cc2nn1CCOC | inactive | –
O=C(c1cccc(F)c1)N1CCC2(CCCN(c3ccccn3)C2)CC1 | inconclusive [inhibitor, single point] | –
COc1ccc(NC(=O)c2cc(-c3cc(Cl)ccc3OC)n[nH]2)c(OC)c1 | active: 23.1 µM | –
CCNC(=O)Nc1ccc(-n2nc(C)c(C(=O)OCC)c2C)nc1 | active: 18.4 µM | –
CNS(=O)(=O)c1cn(CC(=O)Nc2ccc(C)cc2C)cc1S(=O)(=O)NC | inactive | –
Cc1nn(-c2ccccc2)c(Cl)c1/C=C1/C(=N)N2N=C(C(C)C)SC2=NC1=O | inconclusive [inhibitor, single point] | –
O=c1c2cc(Cl)ccc2nc(-c2ccc(Cl)c(Cl)c2)n1O | active: 5.17 µM | –
CCN(CC)CCCNC(=O)c1cc2c(=O)n(C)c3ccccc3c2n1C | inconclusive [inhibitor, single point] | –
Cc1ccc(C2=Nc3ccccc3NC(c3ccncc3)=N2)cc1 | inconclusive [inhibitor, single point] | –
CC(=O)c1c(C)[nH]c(C(=O)Nc2cc(S(=O)(=O)N(C)C)ccc2C)c1C | inactive | –
O=C(COC(=O)c1ccc(O)cc1)Nc1ccc(S(=O)(=O)N2CCCC2)cc1 | inconclusive [inhibitor, partial curve] | –
Cc1ccc(-c2cc([C@H]3[C@H]4C=CC[C@@H](C)[C@@H]4C(=O)N3Cc3ccccc3)ccc2F)cc1 | inconclusive [inhibitor, single point] | –
COc1ccc(S(=O)(=O)N2CCOC2CNC(=O)C(=O)NCCc2ccc(OC)c(OC)c2)cc1C (configuration not stated) | inconclusive [inhibitor, single point] | –
C[C@@H]1CN([C@H](C)CO)C(=O)CCCn2nncc2CO[C@@H]1CN(C)C(=O)NC1CCCCC1 | inactive | –
N#Cc1cccnc1N1CCN(C(=O)c2cccc3c2C(=O)c2ccc(-c4ccc(F)cc4OCc4ccccc4)cc2S3(=O)=O)CC1 | inconclusive [inhibitor, partial curve] | –
CC(C)Sc1nnc(NC(=O)C2CC2)s1 | inconclusive [inhibitor, single point] | –
Cc1cccc(-c2oc3ccccc3c2C#CCCO)c1 | inconclusive [inhibitor, single point] | –
O=[N+]([O-])c1ccc(N2CCN(Cc3ccccc3)CC2)s1 | inconclusive [inhibitor, single point] | –
COc1cccc(CCc2nc3ccccc3c(=O)n2N)c1 | inconclusive [inhibitor, single point] | –
CCN(CC)S(=O)(=O)c1ccc(F)c(C(=O)NCCC(C)C)c1 | – | inconclusive: -32.7% [inhibitor]
Cc1ccccc1Cn1cc(NC(=O)c2cc3nc(-c4ccco4)cc(C(F)(F)F)n3n2)cn1 | inconclusive [inhibitor, partial curve, poor fit] | –

SMILES | Potency | activity change, negative = growth inhibition
CCCN(CC(=O)Nc1ccccc1OC)C(=O)c1cccc(S(=O)(=O)Nc2ccc(OC)cc2)c1 | inconclusive [inhibitor, single point] | –
COc1ccc(NS(=O)(=O)c2ccc(NC(=O)N3CCCC3)cc2)cc1 | inactive | –
CCOC(=O)[C@@H]1[C@H]2COc3ccccc3[C@H]2N2C(=O)N(c3cccc(Cl)c3)C(=O)[C@@]12C | inconclusive [inhibitor, single point] | –
CCc1ccccc1NC(=O)C1CCCN(S(=O)(=O)c2cccc3nsnc23)C1 (configuration not stated) | inconclusive [inhibitor, single point] | –
COc1ccc(CCNC(=O)CCc2c(C)nc3c(c(C)nn3-c3ccc(C)cc3)c2C)c(OC)c1 | inconclusive [inhibitor, single point] | –
CN(C1CCCCC1)S(=O)(=O)c1ccc(S(=O)(=O)N2CCN(C(=O)c3ccccc3F)CC2)cc1 | inconclusive [inhibitor, single point] | –
CC(C)Cc1cc(C(=O)N2CCCC(C(=O)c3cc(F)ccc3F)C2)n(C)n1 (configuration not stated) | – | inconclusive: -31% [inhibitor]
CCCNC(=O)c1cccc(COc2ccccc2OC)c1 | inconclusive [inhibitor, single point] | –
COc1ccc(C(=O)N2CCCC(c3cc(C(=O)NCc4cccnc4)no3)C2)cc1 (configuration not stated) | inconclusive [inhibitor, partial curve] | –
Cc1cc(C)cc(NC(=S)NC2CC3CCCC(C2)N3C2CC2)c1 (configuration not stated) | inconclusive [inhibitor, single point] | –
O=C(C[n+]1ccccc1)N/N=C/c1ccccc1Cl | inactive | –
O=C(Nc1nnc(SCCN2CCOCC2)s1)C1CC(=O)N(c2ccccc2)C1 (configuration not stated) | inactive | –
Cc1nc2nc(NC(=O)c3ccco3)[nH]n2c(=O)c1C | inactive | –
CCC(C)NC(=O)c1cc(Cl)c(NC(=O)C2=C(C)OCCS2)cc1OC (configuration not stated) | inconclusive [inhibitor, single point] | –
COc1ccc(-c2c(-c3cc(OC)cc(OC)c3)n(C)c3ccc(-c4cccc5[nH]ccc45)cc23)cc1 | – | inconclusive: -27.2% [inhibitor]
CSCC[C@H](NC(=O)Cc1c(C)c2c(cc(C)c3c(C)c(C)oc32)oc1=O)C(=O)O | inactive | –
Cc1noc(C)c1S(=O)(=O)N(C)C[C@H]1Oc2ccc(NS(=O)(=O)c3cn(C)cn3)cc2C(=O)N([C@H](C)CO)C[C@@H]1C | inactive | –
CC1(C(=O)NCc2ccc3c(c2)OCO3)CCN1Cc1csc2ccccc12 (configuration not stated) | inconclusive [inhibitor, partial curve] | –
Cc1ccc(S(=O)(=O)c2nc(NCCCn3ccnc3)sc2Cl)cc1 | inconclusive [inhibitor, single point] | –
COc1ccc(Nc2cc(C)nc(-n3nc(C)cc3C)n2)cc1Cl | active: 0.366 µM | –
CCOc1ccc(N(CC(=O)Nc2ccccc2C)S(=O)(=O)c2c(C)noc2C)cc1 | active: 4.61 µM | –
